# Laboratory results as given in the supplement of paper PMC3334620.
# Whole data set: some 33,000 sequences, median “E-score (-0.5 to 0.5)” near -0.012, cut for the highest 2% near 0.27. The list shows a part of the results.
# Molecular target: T1, Vhr1 (UniProt P40522)
# T1 sequence: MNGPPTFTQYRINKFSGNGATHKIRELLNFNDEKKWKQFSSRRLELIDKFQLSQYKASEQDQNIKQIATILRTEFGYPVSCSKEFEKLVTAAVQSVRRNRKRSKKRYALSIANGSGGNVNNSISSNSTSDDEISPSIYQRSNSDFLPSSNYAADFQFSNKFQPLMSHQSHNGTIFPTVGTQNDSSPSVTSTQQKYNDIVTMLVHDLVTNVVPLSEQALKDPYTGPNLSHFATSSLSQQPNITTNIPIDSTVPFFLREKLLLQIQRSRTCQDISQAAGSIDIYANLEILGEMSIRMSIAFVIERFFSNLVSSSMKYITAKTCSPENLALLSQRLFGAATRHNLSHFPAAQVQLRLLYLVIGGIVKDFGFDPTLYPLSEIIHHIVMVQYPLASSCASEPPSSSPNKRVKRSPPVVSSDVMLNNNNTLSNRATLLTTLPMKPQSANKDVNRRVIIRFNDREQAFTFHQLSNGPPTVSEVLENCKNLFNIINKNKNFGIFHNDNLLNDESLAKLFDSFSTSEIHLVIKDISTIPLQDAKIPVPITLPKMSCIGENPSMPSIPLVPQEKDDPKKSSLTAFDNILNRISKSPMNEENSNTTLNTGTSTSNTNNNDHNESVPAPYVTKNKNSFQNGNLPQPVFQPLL
# Assay: PBM E-score (8-mer binding enrichment) (E-score (-0.5 to 0.5)); higher = stronger / more preferred TF binding; most listed sequences are background and not binding sites
# Details: protein concentration: 200 nM; construct: GST-full length
# Method in brief: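 Universal all-10-mer Agilent arrays, fresh or stripped once, were converted to double-stranded form by primer extension. GST-tagged yeast transcription factors from PURExpress in vitro transcription/translation, full-length or DNA-binding domain only, were applied at about 100-200 nM and detected with fluorescent anti-GST. After masliner normalisation, the Universal PBM Analysis Suite scored each ungapped eight-base word together with its reverse complement by E-score.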
row,Sequence,PBM E-score
1,CAGTATGA,0.187
2,AAAATAAT,0.0747
3,AGTCCGGA,0.0589
4,AGTAGCGA,-0.0162
5,CCAATAAA,0.0312
6,GACCTGTA,-0.159
7,CTGGTTGA,-0.0118
8,GGAAGCTA,-0.0458
9,GTAGCTGA,0.0569
10,CGAAGGTA,-0.138
11,GCACAGAC,0.0685
12,ACATTTGG,-0.0663
13,ATAAAGGA,-0.163
14,AAAAGAAC,-0.0263
15,CTCGATAA,0.0897
16,CCCCGTCG,0.119
17,AGACACAT,0.0642
18,CACCCGGC,-0.0627
19,GTCCGGAC,0.273
20,CTCGCCAG,-0.0364
21,GTTCCAAC,0.0451
22,ACTCGCTG,0.0751
23,ACCTCAGG,-0.0862
24,ACCAATCG,0.0254
25,AGAATGAC,0.0751

row,Sequence,PBM E-score
1,CAGAGGCG,-0.162
2,AAGTGAAT,0.103
3,CAGTCTTC,0.0148
4,TAGTTACA,0.0393
5,GCGGACAA,0.185
6,AAGAGTTG,-0.154
7,AGTATGCA,0.203
8,CACTCGAA,-0.0827
9,CTCTACCA,-0.0404
10,AGTAGTGA,0.106
11,AGAGGGAT,-0.237
12,AGGGAGGG,0.187
13,GGCTATCA,-0.0805
14,CTCTCGAA,-0.142
15,GTGAACTA,-0.229
16,CGGAAGAG,-0.151
17,GGATATGA,0.289
18,AAAAATAC,-0.0592
19,ACAAACTC,0.0515
20,ACCTACGG,-0.174
21,CGTATACG,0.107
22,AACTAGAC,0.0785
23,AGCTCGAG,-0.0247
24,GAATTTCC,-0.0327
25,ATCAGGCC,-0.0546

row,Sequence,PBM E-score
1,GAGCGCAC,-0.232
2,GTCATATA,0.0663
3,AAGTCGGA,-0.0236
4,AATCAGAT,0.0903
5,TGCCGCCA,-0.0689
6,GAAGGAAC,-0.159
7,GTGAGAGA,-0.13
8,ACGTGACC,-0.057
9,ACCCTGAG,0.0716
10,GACGCACA,0.171
11,ATAACTAG,0.199
12,CTATGATC,0.112
13,ACACCTCA,-0.0388
14,ACCGGCTC,0.0386
15,ACTCTCGG,0.0854
16,TCCGAAAA,-0.138
17,GAATCGGC,0.122
18,CAAAGACC,-0.122
19,CACCCATA,0.24
20,GATGGACA,-0.00521
21,CCAGGTTA,-0.0596
22,GTTCAAAA,-0.144
23,CGATACTA,0.0919
24,AGCTTCGG,-0.00502
25,ATGATTGC,0.345

row,Sequence,PBM E-score
1,CACTATCG,0.135
2,TGATGGCA,-0.0903
3,CTCCGCAA,-0.202
4,AGAAGATA,-0.193
5,CGTTTATA,0.0653
6,CCATTAAA,0.0108
7,CACTGGCC,-0.00647
8,CCTCGAGG,0.156
9,CTTCCGGC,-0.018
10,GATAAGCA,-0.0689
11,ACGCAGCA,-0.105
12,AGGCACAC,0.0154
13,CATCTGAG,0.0945
14,AGGGGTGC,-0.0271
15,AGACGAGC,-0.271
16,GCCTCCAA,-0.0917
17,GCCGGAGA,-0.00869
18,CTGCGCTA,-0.157
19,CCATGACG,0.0813
20,ACCGCTTG,0.0324
21,CAACGGGA,0.0707
22,CGACATCC,-0.00659
23,ACGTTCTA,-0.0882
24,AAGGCAAA,-0.121
25,AGATTTCC,-0.0412

row,Sequence,PBM E-score
1,CTGGTCTA,-0.205
2,GCCGACTA,0.27
3,AGTAGAAT,-0.0247
4,TCGCGAAA,0.0628
5,TACGAGAA,-0.146
6,CCGCATCG,0.0419
7,TGAAATAA,-0.158
8,CTAAAATC,-0.189
9,GCTTTTAA,-0.283
10,AACAGGAG,-0.0391
11,CGCGTGAC,0.162
12,GTGGTACA,0.071
13,ACTAATCT,0.174
14,CATCCGCC,0.126
15,AGGCTGGA,-0.0974
16,ACACGATC,0.171
17,CCGTCATC,-0.0774
18,ATGATTCA,0.443
19,AGATTAGA,-0.213
20,GAGCTGCA,-0.089
21,AAGTTCGT,-0.204
22,ATGACCTA,0.0857
23,CGCGCCCC,0.0171
24,GAATACCC,0.00311
25,CTTTATAC,-0.161

row,Sequence,PBM E-score
1,CGCCAGAC,0.123
2,ACAAGTAA,-0.0815
3,CAGACTCC,-0.0111
4,CTTATAGA,0.0141
5,TAAGTCAA,-0.122
6,GACAATCC,0.0934
7,AAGCAAGA,-0.0587
8,ACCATTGA,-0.00061
9,AATCAGTC,0.232
10,CAGACCGC,0.194
11,ACTATCAG,0.156
12,CACATTCA,0.0456
13,CCAAAAAC,0.0817
14,AGATCTCG,0.0372
15,CAATTGGA,0.0632
16,ATGGTTTC,0.218
17,ACCGGGCG,0.0842
18,ATGCTAGC,-0.0011
19,AGTACTGA,0.188
20,CGAATAAG,0.0236
21,CAACACGA,0.205
22,CAAGTCCA,-0.222
23,AACGCAAG,-0.179
24,CGGCCCGA,0.166
25,CAACCCCC,-0.127

row,Sequence,PBM E-score
1,GCCTACGA,0.0412
2,ACCACGCC,-0.0986
3,TCGACCGA,-0.156
4,GTATCGTA,-0.012
5,ACGAAACG,-0.0408
6,CACTCAAC,0.0922
7,GGTGGATA,0.0996
8,TAGATAAA,0.0361
9,CGCTCGAA,-0.201
10,GACAAGTA,0.0217
11,ACAAACCG,0.0394
12,AAACCACA,0.248
13,AGAGCTTC,-0.232
14,AGGTCCTG,-0.0314
15,CCGTTTTA,0.015
16,CCAATTGG,-0.0857
17,GACTAACC,0.247
18,GCTGCTTA,-0.0886
19,ACATAGTG,0.314
20,ATTCACTG,-0.0337
21,AGCGTGCA,0.0784
22,CTAATGGC,-0.0956
